Measurements as given in a collection of fitness landscapes (doi:10.1016/j.celrep.2020.107928).
Over roughly 81,000 sequences, “one-hybrid fitness for binding NBS DNA” has its median near -0.1; the highest 2% begin near 0.36. The list shows a part of the results.

B1: Caulobacter ParB omega fusion; a variant is named by its letters at X, in order, B8GW30 (parent)
chain: MESVVVGEPGMSEGRRGLGRGLSALLGEVDAAPAQAPGEQLGGSREAPIEILQRNPDQPRRTFREEDLEDLSNSIREKGVLQPILVRPSPDTAGEYQIVAGERAWRAAQRAGLKTVPIMVRELDDLAVLEIGIIENVQRADLNVLEEALSYKVLMEKFERTQENIAQTIGKSXSHVANXMRLLXLPDEVQSYLVSGELTAXHARAIAAAADPVALAKQIIEGGLSVRETEALARKAPNLSAGKSKGGRPPRVKDTDTQALESDLSSVLGLDVSIDHRGSTGTLTITYATLEQLDDLCNRLTRGI

Variants of: B1
Test: one-hybrid fitness for binding NBS DNA (the Noc-binding site; scaled: cognate 1, non-cognate 0); higher = stronger binding
Settings: with NBS DNA site
Summary of the method: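 Fitness here means the log change in variant-to-wild-type read ratio between plasmids sequenced before and after selection. That scale was set so cognate equals 1 and non-cognate equals 0. The selection was a bacterial one-hybrid screen of Caulobacter ParB libraries, four specificity codons randomised, in E. coli USO carrying a HIS3 reporter with the site 19 bp from the promoter, grown 48 hours at 37°C on M9-minus-histidine with 0.1 mM IPTG and 5 mM 3-AT.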

Variant	one-hybrid fitness for binding NBS DNA
WTRG	≤ 0.2
IKAR	≤ 0.2
EQSL	≤ 0.2
YSVK	≤ 0.2
DHSD	≤ 0.2
LMKN	≤ 0.2
KFGE	≤ 0.2
DRWI	≤ 0.2
MKHS	≤ 0.2
SCQP	≤ 0.2
MLTG	≤ 0.2
MLRW	≤ 0.2
LDCS	≤ 0.2
TNIE	≤ 0.2
TLNP	≤ 0.2
NSPL	≤ 0.2
RSYH	≤ 0.2
VSFQ	≤ 0.2
KVRE	≤ 0.2
QWPI	≤ 0.2
QNCL	≤ 0.2
GPTE	≤ 0.2
RHQP	≤ 0.2
GKVC	≤ 0.2
WNVS	≤ 0.2
YEKF	≤ 0.2

Variant	one-hybrid fitness for binding NBS DNA
SRQE	≤ 0.2
QVAY	≤ 0.2
IIII	≤ 0.2
SDHG	≤ 0.2
GCRL	≤ 0.2
TTET	≤ 0.2
LMAT	≤ 0.2
PWNK	≤ 0.2
PFTR	≤ 0.2
EISF	≤ 0.2
FDHT	≤ 0.2
LMPW	≤ 0.2
IPIA	≤ 0.2
YTNF	≤ 0.2
NSVC	≤ 0.2
SKHS	≤ 0.2
PKRY	≤ 0.2
WSNS	≤ 0.2
VHCT	≤ 0.2
NWWT	≤ 0.2
HDQL	≤ 0.2
KFKF	≤ 0.2
CVMK	≤ 0.2
PKNL	≤ 0.2
IKHT	≤ 0.2
MNQA	≤ 0.2

Variant	one-hybrid fitness for binding NBS DNA
CATV	≤ 0.2
DPIK	≤ 0.2
FYPS	≤ 0.2
QKSG	≤ 0.2
RVLL	≤ 0.2
PYPW	≤ 0.2
AQKL	≤ 0.2
VPDI	≤ 0.2
LNSP	≤ 0.2
AGKW	≤ 0.2
VRTI	≤ 0.2
RHTA	≤ 0.2
PIAC	≤ 0.2
RTAH	≤ 0.2
YDPG	≤ 0.2
NHQF	≤ 0.2
LMCM	≤ 0.2
DYHS	≤ 0.2
QSMH	≤ 0.2
HGAW	≤ 0.2
TYVA	≤ 0.2
MPSR	≤ 0.2
PLGN	≤ 0.2
NMLA	≤ 0.2
PMRS	≤ 0.2
QRNM	0.461

Variant	one-hybrid fitness for binding NBS DNA
WMPV	≤ 0.2
GNWS	≤ 0.2
PGNR	≤ 0.2
TGYM	≤ 0.2
LTSV	≤ 0.2
WQDT	≤ 0.2
HPHT	≤ 0.2
PVYL	≤ 0.2
WRLH	≤ 0.2
NMEG	≤ 0.2
FYHG	≤ 0.2
CPPR	≤ 0.2
GRRR	0.22
VVRE	≤ 0.2
GVPP	≤ 0.2
HAHS	≤ 0.2
THMK	≤ 0.2
VPPE	≤ 0.2
DKNH	≤ 0.2
PSAT	≤ 0.2
WSHY	≤ 0.2
QEPG	≤ 0.2
PASS	≤ 0.2
RKWR	0.49
HSYR	≤ 0.2
RNPY	≤ 0.2

Variant	one-hybrid fitness for binding NBS DNA
EKTH	≤ 0.2
CDSR	≤ 0.2
RVVD	≤ 0.2
TTKV	≤ 0.2
PGET	≤ 0.2
KNLS	≤ 0.2
VAYS	≤ 0.2
DFPR	≤ 0.2
KTCG	≤ 0.2
VQHR	≤ 0.2
LGHI	≤ 0.2
VNLH	≤ 0.2
VATV	≤ 0.2
LCEE	≤ 0.2
PCVN	≤ 0.2
PSAR	≤ 0.2
RSGN	≤ 0.2
DSAD	≤ 0.2
TKTY	≤ 0.2
ALYR	≤ 0.2
QYMH	≤ 0.2
SVSA	≤ 0.2
CVGC	≤ 0.2
PDEM	≤ 0.2
KPRH	≤ 0.2
GATW	≤ 0.2

Variant	one-hybrid fitness for binding NBS DNA
FEKS	≤ 0.2
GLPL	≤ 0.2
LCEG	≤ 0.2
TFLT	≤ 0.2
ITSL	≤ 0.2
NMGE	≤ 0.2
QKTP	≤ 0.2
RYML	≤ 0.2
IICL	≤ 0.2
PSWS	≤ 0.2
TMWE	≤ 0.2
QYQW	0.237
AGFC	≤ 0.2
SFCW	≤ 0.2
FTPL	≤ 0.2
MRCS	≤ 0.2
RLAS	0.383
AVKK	≤ 0.2
QRIS	0.546
PTTD	≤ 0.2
SISV	≤ 0.2
ACIY	≤ 0.2
QPAN	≤ 0.2
